Measurements reported in the supplement of paper PMC4967469.
By IC50 is meant the dose at which the fit gives 50% viability; fits outside the tested doses are given as limits. For AUC the same curve is integrated over the 256-fold range of doses and scaled to a fraction; the more sensitive the line, the further below 1. For some assays here: A top dose marked as inferred was calculated from the reported fits. For some assays here: Where an entry number is given, a second screen of the drug exists; the two often differ.

Assays:
Test in all cases: Viability of human cancer cell lines after 72 h of drug (GDSC screen)
[1] = compound: Cc1ccc(Nc2cc(-c3cccc(N4C(=O)c5ccccc5C4=O)c3)ncn2)cc1NS(C)(=O)=O [KIN001-270]; conditions: top dose 20 µM; top dose inferred
Protocol: (§1)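 Human cancer cell lines in 384-well plates, medium with 10% serum, drug for 72 h over a 256-fold dose range (nine 2-fold or five 4-fold steps up to the top dose). Adherent lines were fixed and stained with the nucleic acid dye Syto60, suspension lines read with resazurin; signal relative to control wells, capped at 0 and 100%. One two-parameter sigmoid per drug and line, fitted in a mixed model over all curves with the slope shared within a line.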

[2] = compound: C/C(O)=C(\C#N)C(=O)Nc1cc(Br)ccc1Br [LFM-A13]; conditions: top dose 16 µM; top dose inferred
Protocol: as §1

[3] = compound: Nc1ccn([C@@H]2O[C@H](CO)[C@@H](O)C2(F)F)c(=O)n1 [Gemcitabine]; conditions: top dose 1.024 µM
Protocol: as §1

[4] = compound: O=S(=O)(c1ccccc1)N(CC(F)(F)F)c1ccc(C(O)(C(F)(F)F)C(F)(F)F)cc1 [T0901317]; conditions: top dose 10.24 µM; top dose inferred
Protocol: as §1

[5] = compound: Cc1cn(-c2cc(NC(=O)c3ccc(C)c(Nc4nccc(-c5cccnc5)n4)c3)cc(C(F)(F)F)c2)cn1 [Nilotinib]; conditions: top dose 2 µM
Protocol: as §1

[6] = compound: CC(C)c1ccccc1Cc1cc(C(=O)Nc2ccc(S(=O)(=O)c3ccccc3C(C)(C)C)cc2)c(O)c(O)c1O [TW-37]; conditions: top dose 5 µM
Protocol: as §1

[7] = compound: CCNC(=O)c1noc(-c2cc(C(C)C)c(O)cc2O)c1-c1ccc(CN2CCOCC2)cc1 [AUY922]; conditions: top dose 0.256 µM; top dose inferred
Protocol: as §1

[8] = compound: NC(=O)c1cccc(-c2cc(Nc3ccc(OC(F)(F)F)cc3)ncn2)c1 [GNF-2]; conditions: top dose 1.28 µM; top dose inferred
Protocol: as §1

[9] = compound: S=C(NCc1ccc2c(c1)OCO2)N1CCN(c2ncnc3c2oc2ccccc23)CC1 [MP470]; conditions: top dose 20 µM; top dose inferred
Protocol: as §1

[10] = compound: CC(O)(CS(=O)(=O)c1ccc(F)cc1)C(=O)Nc1ccc(C#N)c(C(F)(F)F)c1 [Bicalutamide]; conditions: top dose inferred
Protocol: as §1

[11] = top dose 1.024 µM, screen: GDSC drug entry 150
[12] = top dose 10 µM, screen: GDSC drug entry 1502

ONS-76 (medulloblastoma, adherent)
AUC [1]: 0.948 | IC50 [1]: > 20000 nM | AUC [2]: 0.976 | IC50 [2]: > 16000 nM | AUC [3]: 0.328 | IC50 [3]: 20.3 nM | AUC [4]: 0.984 | IC50 [4]: > 10200 nM | AUC [5]: 0.965 | IC50 [5]: > 2000 nM | AUC [6]: 0.497 | IC50 [6]: 306 nM | AUC [7]: 0.594 | AUC [8]: 0.985 | IC50 [8]: > 1280 nM | AUC [9]: 0.967 | IC50 [9]: > 20000 nM | AUC [10, 11]: 0.985 | IC50 [10, 11]: > 1020 nM | AUC [10, 12]: 0.974 | IC50 [10, 12]: > 10000 nM

NCI-H1304 (small cell lung carcinoma, suspension)
AUC [1]: 0.987 | IC50 [1]: > 20000 nM | AUC [2]: 0.979 | IC50 [2]: > 16000 nM | AUC [3]: 0.547 | IC50 [3]: 86.9 nM | AUC [4]: 0.988 | IC50 [4]: > 10200 nM | AUC [5]: 0.97 | IC50 [5]: > 2000 nM | AUC [6]: 0.951 | IC50 [6]: > 5000 nM | AUC [7]: 0.737 | IC50 [7]: 81.1 nM | AUC [8]: 0.988 | IC50 [8]: > 1280 nM | AUC [9]: 0.939 | IC50 [9]: > 20000 nM | AUC [10, 11]: 0.982 | IC50 [10, 11]: > 1020 nM | AUC [10, 12]: 0.986 | IC50 [10, 12]: > 10000 nM

CA46 (Burkitt lymphoma, suspension)
AUC [1]: 0.898 | IC50 [1]: > 20000 nM | AUC [2]: 0.961 | IC50 [2]: > 16000 nM | AUC [3]: 0.75 | IC50 [3]: 358 nM | AUC [4]: 0.962 | IC50 [4]: > 10200 nM | AUC [5]: 0.985 | IC50 [5]: > 2000 nM | AUC [6]: 0.842 | IC50 [6]: 3880 nM | AUC [7]: 0.625 | IC50 [7]: 36.4 nM | AUC [8]: 0.97 | IC50 [8]: > 1280 nM | AUC [9]: 0.916 | IC50 [9]: > 20000 nM | AUC [10, 11]: 0.984 | IC50 [10, 11]: > 1020 nM | AUC [10, 12]: 0.963 | IC50 [10, 12]: > 10000 nM

PF-382 (T-cell lymphoblastic leukaemia, suspension)
AUC [1]: 0.955 | IC50 [1]: > 20000 nM | AUC [2]: 0.979 | IC50 [2]: > 16000 nM | AUC [3]: 0.338 | IC50 [3]: 24.2 nM | AUC [4]: 0.938 | IC50 [4]: > 10200 nM | AUC [5]: 0.991 | IC50 [5]: > 2000 nM | AUC [6]: 0.669 | IC50 [6]: 863 nM | AUC [7]: 0.559 | IC50 [7]: 22.7 nM | AUC [8]: 0.991 | IC50 [8]: > 1280 nM | AUC [9]: 0.968 | IC50 [9]: > 20000 nM | AUC [10, 11]: 0.985 | IC50 [10, 11]: > 1020 nM | AUC [10, 12]: 0.99 | IC50 [10, 12]: > 10000 nM

KARPAS-299 (anaplastic large cell lymphoma, suspension)
AUC [1]: 0.937 | IC50 [1]: > 20000 nM | AUC [2]: 0.99 | IC50 [2]: > 16000 nM | AUC [3]: 0.501 | IC50 [3]: 64.5 nM | AUC [4]: 0.982 | IC50 [4]: > 10200 nM | AUC [5]: 0.979 | IC50 [5]: > 2000 nM | AUC [6]: 0.624 | IC50 [6]: 643 nM | AUC [7]: 0.889 | IC50 [7]: 207 nM | AUC [8]: 0.987 | IC50 [8]: > 1280 nM | AUC [9]: 0.976 | IC50 [9]: > 20000 nM | AUC [10, 11]: 0.992 | IC50 [10, 11]: > 1020 nM | AUC [10, 12]: 0.981 | IC50 [10, 12]: > 10000 nM

HUTU-80 (digestive system, adherent)
AUC [1]: 0.954 | IC50 [1]: > 20000 nM | AUC [2]: 0.98 | IC50 [2]: > 16000 nM | AUC [3]: 0.017 | IC50 [3]: < 4 nM | AUC [4]: 0.953 | IC50 [4]: > 10200 nM | AUC [5]: 0.983 | IC50 [5]: > 2000 nM | AUC [6]: 0.292 | IC50 [6]: 91.3 nM | AUC [7]: 0.44 | IC50 [7]: 11.3 nM | AUC [8]: 0.991 | IC50 [8]: > 1280 nM | AUC [9]: 0.679 | IC50 [9]: 3570 nM | AUC [10, 11]: 0.991 | IC50 [10, 11]: > 1020 nM | AUC [10, 12]: 0.988 | IC50 [10, 12]: > 10000 nM

DMS-114 (small cell lung carcinoma, adherent)
AUC [1]: 0.971 | IC50 [1]: > 20000 nM | AUC [2]: 0.984 | IC50 [2]: > 16000 nM | AUC [3]: 0.977 | IC50 [3]: > 1020 nM | AUC [4]: 0.974 | IC50 [4]: > 10200 nM | AUC [5]: 0.985 | IC50 [5]: > 2000 nM | AUC [6]: 0.339 | IC50 [6]: 104 nM | AUC [7]: 0.896 | IC50 [7]: > 256 nM | AUC [8]: 0.985 | IC50 [8]: > 1280 nM | AUC [9]: 0.896 | IC50 [9]: > 20000 nM | AUC [10, 11]: 0.982 | IC50 [10, 11]: > 1020 nM | AUC [10, 12]: 0.96 | IC50 [10, 12]: > 10000 nM

MLMA (hairy cell leukaemia, semi-adherent)
AUC [1]: 0.954 | IC50 [1]: > 20000 nM | AUC [2]: 0.977 | IC50 [2]: > 16000 nM | AUC [3]: 0.443 | IC50 [3]: 44.6 nM | AUC [4]: 0.985 | IC50 [4]: > 10200 nM | AUC [5]: 0.928 | IC50 [5]: > 2000 nM | AUC [6]: 0.413 | IC50 [6]: 180 nM | AUC [7]: 0.718 | IC50 [7]: 66.7 nM | AUC [8]: 0.986 | IC50 [8]: > 1280 nM | AUC [9]: 0.982 | IC50 [9]: > 20000 nM | AUC [10, 11]: 0.986 | IC50 [10, 11]: > 1020 nM | AUC [10, 12]: 0.982 | IC50 [10, 12]: > 10000 nM

NCI-H1417 (small cell lung carcinoma, suspension)
AUC [1]: 0.982 | IC50 [1]: > 20000 nM | AUC [2]: 0.972 | IC50 [2]: > 16000 nM | AUC [3]: 0.754 | IC50 [3]: 403 nM | AUC [4]: 0.974 | IC50 [4]: > 10200 nM | AUC [5]: 0.955 | IC50 [5]: > 2000 nM | AUC [6]: 0.574 | IC50 [6]: 519 nM | AUC [7]: 0.677 | IC50 [7]: 55.4 nM | AUC [8]: 0.98 | IC50 [8]: > 1280 nM | AUC [9]: 0.703 | IC50 [9]: 5250 nM | AUC [10, 11]: 0.978 | IC50 [10, 11]: > 1020 nM | AUC [10, 12]: 0.973 | IC50 [10, 12]: > 10000 nM

EB-3 (Burkitt lymphoma, suspension)
AUC [1]: 0.894 | IC50 [1]: > 20000 nM | AUC [2]: 0.976 | IC50 [2]: > 16000 nM | AUC [3]: 0.949 | IC50 [3]: > 1020 nM | AUC [4]: 0.956 | IC50 [4]: > 10200 nM | AUC [5]: 0.984 | IC50 [5]: > 2000 nM | AUC [6]: 0.921 | IC50 [6]: > 5000 nM | AUC [7]: 0.752 | IC50 [7]: 97.8 nM | AUC [8]: 0.98 | IC50 [8]: > 1280 nM | AUC [9]: 0.955 | IC50 [9]: > 20000 nM | AUC [10, 11]: 0.983 | IC50 [10, 11]: > 1020 nM | AUC [10, 12]: 0.972 | IC50 [10, 12]: > 10000 nM

ES5 (Ewing sarcoma, adherent)
AUC [1]: 0.939 | IC50 [1]: > 20000 nM | AUC [2]: 0.954 | IC50 [2]: > 16000 nM | AUC [3]: 0.551 | IC50 [3]: 89.8 nM | AUC [4]: 0.967 | IC50 [4]: > 10200 nM | AUC [5]: 0.939 | IC50 [5]: > 2000 nM | AUC [6]: 0.549 | IC50 [6]: 433 nM | AUC [7]: 0.673 | IC50 [7]: 52.5 nM | AUC [8]: 0.982 | IC50 [8]: > 1280 nM | AUC [9]: 0.907 | IC50 [9]: > 20000 nM | AUC [10, 11]: 0.983 | IC50 [10, 11]: > 1020 nM | AUC [10, 12]: 0.97 | IC50 [10, 12]: > 10000 nM

CAS-1 (glioma, adherent)
AUC [1]: 0.981 | IC50 [1]: > 20000 nM | AUC [2]: 0.974 | IC50 [2]: > 16000 nM | AUC [3]: 0.771 | IC50 [3]: 540 nM | AUC [4]: 0.982 | IC50 [4]: > 10200 nM | AUC [5]: 0.981 | IC50 [5]: > 2000 nM | AUC [6]: 0.765 | IC50 [6]: 2500 nM | AUC [7]: 0.733 | IC50 [7]: 96.3 nM | AUC [8]: 0.973 | IC50 [8]: > 1280 nM | AUC [9]: 0.867 | IC50 [9]: > 20000 nM | AUC [10, 11]: 0.971 | IC50 [10, 11]: > 1020 nM | AUC [10, 12]: 0.967 | IC50 [10, 12]: > 10000 nM
